# Measurements taken from PubChem BioAssay AID1347120 (National Center for Advancing Translational Sciences (NCATS), 2019).
# Values joined by “and” are separate entries in the source; they are usually repeats but may differ in a detail not shown here. Identical values can stand only once. The whole screen tested about 390,000 compounds, of which about 930 (0.24%) were called active. Inconclusive means that the source gave no clear call. Such entries were picked first, then a sample of the others. The call rests on the fitted dose curve; in most records, active means well fitted activation curve with a large enough effect; inconclusive means small, poorly fitted or top-dose-only effect; inactive means no such curve, though single readings can be large or run the other way. A potency beside an inconclusive call is a rough fit, not a confirmed value.
# Assay: qHTS for Suppressors of FUS Proteinopathy: Primary screen using FUS-linked yeast assay; further: nearly all actives have a fitted effect of over 55% in size;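 on growth rescue (activation): plate controls were DMSO vehicle for no effect and reference control for full effect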
# Settings: S. cerevisiae FUS-expressing, OD600, 24 h; Potency: growth rescue; growth rescue (activation): at 76.6 µM (top of the series)
# Method in brief: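 Toxicity suppression screen in FUS-yeast. Cells induced with 2% galactose, starting OD 0.005, treated 24hr at 30C with compounds at multiple final concentrations; growth by OD600.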
# Potency means the concentration at half of the fitted maximal effect; tags describe the fitted curve by direction and shape.
SMILES,Potency,growth rescue (activation)
Cc1ccc(-c2nnc(Nc3ccc(Br)cc3)c3ccccc23)cc1S(=O)(=O)NCC1CCCO1 (configuration not stated),"inconclusive: 50.1 µM [activator, single point]",
COC(=O)c1ccc(OCC2c3cc(OC)c(OC)cc3CCN2C(=O)c2ccccc2C)cc1 (configuration not stated),"inconclusive: 31.6 µM [activator, single point]",
CCCCn1c(N)c(N(CC(C)C)C(=O)C2CC(=O)N(c3ccccc3C(C)CC)C2)c(=O)[nH]c1=O (configuration not stated),"inconclusive: 35.5 µM [activator, single point]",
CCc1cccc(CC)c1NC(=O)c1c(C)oc2ccc(O)c(CN3CCN(C)CC3)c12,,inactive: -5.35%
Cc1cccc(N2CCN(C(=O)Cn3ncc4c3-c3cc(C)ccc3OC4)CC2C)c1 (configuration not stated),"inconclusive: 25.1 µM [activator, single point]",
C/C(CC(=O)Nc1ccc(N(C)C)cc1)=N\NC(=O)c1ccccc1O,"inconclusive: 22.4 µM [activator, single point]",
CC(C)CNS(=O)(=O)c1cc(C(=O)O)c(Cl)cc1Cl,"inconclusive: 8.91 µM [activator, single point]",
C=CCN(c1ccccc1Cl)S(=O)(=O)c1cccc(C(=O)OCC(=O)N(C)C2CCS(=O)(=O)C2)c1 (configuration not stated),"inconclusive: 50.1 µM [activator, single point]",
COc1ccc(-c2nc3ccc([N+](=O)[O-])cc3[nH]2)cc1,,inactive: 22.8%
CC(C)Oc1ccc(C(CCNCc2ccc(O)cc2)c2ccccc2)cc1 (configuration not stated),,inactive: -3.04%
CC(C)c1ccc(C2C(C(=O)c3ccco3)=C(O)C(=O)N2CCN2CCOCC2)cc1 (configuration not stated),"inconclusive: 5.62 µM [activator, full curve]",
Cc1nc2cc(C(=O)NCCC3=CCCCC3)ccc2n1-c1ccc(Br)cc1,active: 25.1 µM,
C/C(N)=C(/C#N)C(=O)COC(=O)C1Cc2ccccc2CN1S(C)(=O)=O (configuration not stated),"inconclusive: 44.7 µM [activator, single point]",
Cc1cc2cc(C(c3nnnn3Cc3ccco3)N3CCc4ccccc4C3)c(=O)[nH]c2cc1C (configuration not stated),active: 14.1 µM,
CCO[C@H]1OC(C(N)=O)=C[C@@H](c2ccc(Br)cc2)[C@@H]1CCCO,,inactive: -29.7%
CCN1CCN(Cc2ccc(NC(=O)c3ccc(C)c(NC(=O)c4c[nH]c5cc(C(F)(F)F)ccc5c4=O)c3)cc2C(F)(F)F)CC1,"inconclusive: 50.1 µM [activator, single point] and inconclusive: 28.2 µM [activator, single point]",
Cc1ccc(NC(=O)CN2C(=O)S/C(=C/c3ccc(-c4cccc(C(=O)O)c4)o3)C2=O)cc1,,inactive: 11%
